About 1,400 (0.36%) of roughly 390,000 compounds were called active. The inconclusive results got no clear call from the source; some entries with a clear call stand among them for comparison. Calls come from the whole dose curve; as a rule, active = well fitted inhibition curve with a large enough effect; inconclusive = small, poorly fitted or top-dose-only effect; inactive = no such curve, though single readings can be large or run the other way. Where the call is inconclusive, the potency comes from a doubtful curve fit.
Target: Flap endonuclease 1 (Homo sapiens) (UniProt P39748)
Assay: qHTS Assay for the Inhibitors of Human Flap endonuclease 1 (FEN1). Note: nearly all actives have a fitted effect of over 65% in size.
Details: Recombinant FEN1 flap cleavage, fluorescence, 15 min; series mostly up to 114 µM; activity change, negative = inhibition: at the top concentration
Procedure, shortened: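 FEN1 at 10 nM preincubated with compounds 15 min at room temperature, then flap DNA substrate added at 50 nM final. Signal read at 0 and 15 min; concentration-response fitted with four-parameter Hill equation.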
% is set by controls: 0 for no effect and ±100 for the full control effect; potency is the fitted concentration of half-maximal effect; tags give direction and shape of the fitted curve.

Chain of UniProt P39748 (P39748 whole entry, looked up): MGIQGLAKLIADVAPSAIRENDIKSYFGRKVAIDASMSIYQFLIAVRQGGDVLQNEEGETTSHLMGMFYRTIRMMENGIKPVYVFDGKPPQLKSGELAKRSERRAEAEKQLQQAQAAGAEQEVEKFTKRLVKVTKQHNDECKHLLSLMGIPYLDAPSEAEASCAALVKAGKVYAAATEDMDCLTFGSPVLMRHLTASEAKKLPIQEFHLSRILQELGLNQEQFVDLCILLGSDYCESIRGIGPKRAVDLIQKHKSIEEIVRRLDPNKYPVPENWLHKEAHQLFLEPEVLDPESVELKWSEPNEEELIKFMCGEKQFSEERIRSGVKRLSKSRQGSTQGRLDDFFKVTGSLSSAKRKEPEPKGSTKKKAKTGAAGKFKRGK

SMILES	Potency	activity change, negative = inhibition
Cn1cccc1-c1nc2ccc([N+](=O)[O-])cc2[nH]1	inconclusive: 44.7 µM [inhibitor, partial curve, poor fit]	
COc1ccccc1-n1cnc2c(c1=O)c1nc3ccccc3nc1n2-c1ccc(C)c(C)c1	inconclusive: 15.8 µM [inhibitor, partial curve]	
COc1ccccc1C(=O)Nc1cccc2cccnc12	inconclusive: 89.1 µM [inhibitor, partial curve, poor fit]	
Cc1cccc(Oc2coc3cc(OCC(=O)NC4CCCCC4)ccc3c2=O)c1	inconclusive: 89.1 µM [inhibitor, single point]	
Oc1ccc(CN2CCC(Cc3ccccc3)CC2)c2cccnc12	inconclusive: 39.8 µM [inhibitor, partial curve, poor fit]	
Cc1ccc(C)c(-c2nc3ccc(N)cc3[nH]2)c1		inactive: -5.79%
COc1ccc2[nH]c(=O)c(-c3noc(-c4ccccc4)n3)cc2c1	inconclusive: 28.2 µM [inhibitor, full curve]	
Cc1ccc(C(=O)CC(=O)c2cccc(F)c2)c(O)c1	inconclusive: 50.1 µM [inhibitor, partial curve, poor fit]	
CCCc1cc(=O)oc2cc(C)c(CN3CCCC3)c(O)c12	active: 50.1 µM	
Cc1ccc(O)c(C2=Nc3ccccc3N=C(c3cccc(F)c3)C2)c1	inconclusive: 56.2 µM [inhibitor, partial curve, poor fit]	
O=c1[nH]c2c(s1)C=Nc1ccccc1N2	inconclusive: 89.1 µM [inhibitor, single point]	
CC(C)NC[C@H](O)COc1cccc2ccccc12	inconclusive: 6.7 µM [inhibitor, partial curve, poor fit]	
C=CSc1sc(Cl)c(N(C)C)c1[N+](=O)[O-]		inactive: -1.74%
CN(C)c1cccc2ccccc12		inactive: 1.97%
CCCn1c(N/N=C\C=C\c2ccccc2)nc2c1c(=O)[nH]c(=O)n2C	inconclusive: 70.8 µM [inhibitor, partial curve, poor fit]	
Cc1cc(/C=N/Nc2ccc([N+](=O)[O-])cn2)c(C)n1-c1ccc(C(=O)O)cc1	inconclusive: 79.4 µM [inhibitor, partial curve]	
O=C(CNCc1ccco1)Nc1cccc(S(=O)(=O)N2CCCCC2)c1		inactive: -3.54%
CCN(CC)CCCNC(=O)c1nn(-c2ccc(C)cc2)c(=O)c2c1c1ccccc1n2C	inconclusive: 50.1 µM [inhibitor, partial curve]	
O=C(O)c1cccc(-n2cccc2C=C2C(=O)c3ccccc3C2=O)c1	active: 50.1 µM	
C=CSc1sc(Cl)c(N2CCOCC2)c1[N+](=O)[O-]		inactive: -9.1%
CCOC(=O)c1cc(-c2ccc(OC)cc2)n(CCC(=O)Nc2nc3ccc(OCC)cc3s2)c1C		inactive: -21.5%
COc1cc2c(NC3CCN(C(C)C)CC3)nc(N3CCCN(C)CC3)nc2cc1OCCOCCN1CCCC1	active: 20 µM	

SMILES	Potency	activity change, negative = inhibition
COc1cc(Cl)c(C)cc1NC(=O)Cn1ncc2c3ccccc3n(Cc3ccccc3)c2c1=O		inactive: -6.48%
CCOc1ccc(OCC)c(NC(=O)Nc2ccc3c(c2)N(C)C(=O)CS3)c1	inconclusive: 39.8 µM [inhibitor, partial curve, poor fit]	
Cc1oc(-c2cccc(Cl)c2)nc1Cn1c(SCc2ccccc2F)nc2ccncc21		inactive: -19.2%
O=C(O)COc1ccccc1/C=N/NC(=O)c1cc(-c2ccc(Cl)cc2)nc2ccccc12	inconclusive: 56.2 µM [inhibitor, partial curve, poor fit]	
COc1ccc(CC(=O)N/N=C/c2ccc(-c3cccc(C(=O)O)c3)o2)cc1OC		inactive: -21.6%
O=C(O)c1ccccc1Nc1cc(Cl)c2nonc2c1[N+](=O)[O-]		inactive: 9.16%
COC(=O)/C(=C\C(=O)c1ccc([N+](=O)[O-])cc1)Nc1ccc(OC)cc1	inconclusive: 44.7 µM [inhibitor, partial curve, poor fit]	
COC(=O)c1cc(NC(=O)c2ccc3c(c2)NC(=O)c2ccccc2S3)cc(C(=O)OC)c1		inactive: 2.03%
Cc1[nH]c2ccccc2c1/C=C/c1ccnc2ccccc12	inconclusive: 89.1 µM [inhibitor, single point]	
C/C(=N\OCC(=O)Nc1ccc(Br)cc1)c1cccs1	inconclusive: 79.4 µM [inhibitor, partial curve, poor fit]	
Cc1cc(C)c(S(=O)(=O)Nc2cccc3cccnc23)c(C)c1	inconclusive: 50.1 µM [inhibitor, partial curve, poor fit]	
C=CC[n+]1ccc(/C=C2\C=Cc3cc(C)ccc3N2CC)c2ccccc21	inconclusive: 14.1 µM [inhibitor, full curve, poor fit]	
CCOc1ccc(C(=O)/C=C/Nc2ccc(S(=O)(=O)Nc3cc(C)nc(C)n3)cc2)cc1		inactive: -17.5%
O=C(CSc1ncccc1-c1nc2ccccc2[nH]1)NCc1ccco1	inconclusive: 89.1 µM [inhibitor, partial curve, poor fit]	
CC(=O)N1CC[n+]2c(-c3ccc([N+](=O)[O-])cc3)csc21	inconclusive: 89.1 µM [inhibitor, partial curve, poor fit]	
COc1cc([N+](=O)[O-])ccc1NC(=O)NCC1CCN(Cc2ccc(Cl)cc2)CC1	inconclusive: 56.2 µM [inhibitor, partial curve, poor fit]	
O=C(O)c1cc2ccccc2c(N=Nc2cccnc2)c1O	inconclusive: 50.1 µM [inhibitor, partial curve]	
Cc1ccc(CCNC(=O)c2cc3c(s2)-c2ccccc2OC3)cc1	inconclusive: 79.4 µM [inhibitor, partial curve, poor fit]	
CCCCCn1c(N)c(-c2nc3ccccc3s2)c2c([N+](=O)[O-])nn(C)c(=O)c21		inactive: -2.1%
Cc1cc(C)c2nc3nc(C)cc(C)c3c(N)c2c1	active: 39.8 µM	
COc1ccc(-c2cc(-c3nc4ccccn4c3NCc3ccccc3)ccc2OC)cc1	inconclusive: 28.2 µM [inhibitor, partial curve, poor fit]	
